# Measured values published in PubChem BioAssay AID1345083 (National Center for Advancing Translational Sciences (NCATS), 2018).
# Among all 94,000 compounds or so, about 6,200 (6.6%) were called active. Inconclusive means that the source gave no clear call. Such entries were picked first, then a sample of the others. The call rests on the fitted dose curve; in most records, active means well fitted inhibition curve with a large enough effect; inconclusive means small, poorly fitted or top-dose-only effect; inactive means flat fitted curve, though single readings scatter. Potencies beside an inconclusive call are fits to weak or partial responses and may not hold up.
# Experiment: Cytotoxic Profiling in HEK 293 Cell Line of Diverse Libraries Using Quantitative High-Throughput Screening; further: nearly all actives have a fitted effect of over 60% in size
# Settings: HEK 293 viability, ATP luminescence (CellTiter-Glo), 48-72 h; activity change, negative = cytotoxicity: at 115 µM (top of the series) unless noted; series mostly up to 115 µM
# In short: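 HEK 293 seeded at 250 cells/well receive compound via pintool. After 48 or 72 hr at 37 degree Celsius, 5% CO2 and 95% humidity, CellTiter-Glo is dispensed and luminescence read following 10 min at room temperature.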
# On the % scale 0 is the no-effect control and ±100 the full control effect; potency means the concentration at half of the fitted maximal effect; tags describe the fitted curve by direction and shape.
Compound,Potency,"activity change, negative = cytotoxicity",outcome
CCCNC(=O)N1CCC(Cc2ccc(CCNC(C)=O)cc2)CC1,active: 44.7 µM,–,–
COc1ccccc1Nc1ccnc(N2CCCC(C(=O)NCCc3ccc(Cl)cc3)C2)n1 (stereo unspecified),"inconclusive: 8.91 µM [inhibitor, full curve, poor fit]",–,–
O=C(c1cccc(Cl)c1)N1CCC(C(=O)N2CCCC(c3nc4ccncc4[nH]3)C2)CC1 (stereo unspecified),–,inactive: 1.44%,–
O=C(NCCc1ccc(Cl)cc1)C1CN(c2ccc(F)cc2)C(=O)N1 (stereo unspecified),–,inactive: -15.1%,–
COCCN1CCC2(CCC1=O)CCN(C(=O)Nc1ccc(C(=O)OC)cc1)CC2,–,inactive: -4.46%,–
Cc1ccc(Nc2ccnc(N3CCCN([S+](=O)([O-])c4cccs4)C3)n2)cc1,active: 25.1 µM,–,–
COc1ccc(OCc2nc(C)c(CCO)c(=O)n2CC(=O)Nc2ccc(C)c(C)c2)cc1,"inconclusive: 56.2 µM [inhibitor, partial curve, poor fit]",–,–
Cc1ccc(CN2CCCC(Cc3ncc(C)n3Cc3ccccc3)C2)o1 (stereo unspecified),"inconclusive: 50.1 µM [inhibitor, partial curve, poor fit]",–,–
CCOC(=O)[C@H]1C[C@]2(CCCCN(CCO)C2=O)N(C(=O)c2ccc(OC)cc2)[C@H]1c1ccco1,"inconclusive: 56.2 µM [inhibitor, partial curve, poor fit]",–,–
CCc1cc(=O)n(CC(=O)Nc2cccc(Br)c2)c(N2CCOCC2)n1,"inconclusive: 50.1 µM [inhibitor, partial curve, poor fit]",–,–
COc1ccc(CCNC(=O)c2cc(-c3ccccc3F)nc3c2cnn3C)cc1,active: 35.5 µM,–,–
O=C(NCC1CC1)c1ccnc(-c2nnc3ccc(Nc4ccccc4)nn23)c1,"inconclusive: 56.2 µM [inhibitor, full curve]",–,–
O=C(Nc1ccc(F)cc1)c1nc2sccn2c1-c1ccc(C(F)(F)F)cc1,"inconclusive: 50.1 µM [inhibitor, partial curve, poor fit]",–,–
CN1N=C(C(=O)N2CCCC(CCc3ccc(F)c(F)c3)C2)CCC1=O (stereo unspecified),"inconclusive: 89.1 µM [inhibitor, single point]",–,–
CCN1c2cc(C(=O)Nc3ccc(F)cc3)ccc2C(=O)N2CCCC21 (stereo unspecified),"inconclusive: 56.2 µM [inhibitor, partial curve, poor fit]",–,–
Cc1nc(CN2Cc3nc(Oc4ccccc4)ccc3OCC2=O)cs1,"inconclusive: 112 µM [inhibitor, partial curve, poor fit]",–,–
O=C(NCC(=O)N1CCOCC1)c1cccc(-c2ccc(C(F)(F)F)cc2)c1,"inconclusive: 10 µM [inhibitor, full curve, poor fit]",–,–
CC(C)=CCn1c(-c2cc(C)oc2C)cn2cc(C(=O)N3CCCC3C)nc2c1=O (stereo unspecified),"inconclusive: 50.1 µM [inhibitor, partial curve, poor fit]",–,–
CC(C)c1ccc(S(=O)(=O)N2C[C@@H](F)C[C@H]2C(=O)N2CCc3ccccc3C2)cc1,"inconclusive: 89.1 µM [inhibitor, single point]",–,–
O=C(c1ccc(Cl)nc1)N1CCCC(C(=O)N2CCC(c3nc4ncccc4[nH]3)C2)C1 (stereo unspecified),–,inactive: 3.12%,–
O=C(NCc1ccncc1)C1CN(Cc2ccccc2Br)CC12CCOCC2 (stereo unspecified),–,inactive: -16.2%,–
Fc1ccc(-c2cn[nH]c2C2CCCNC2)cc1 (stereo unspecified),–,inactive: -0.142%,–

Compound,Potency,"activity change, negative = cytotoxicity",outcome
CC(C)NC(=O)c1cc(-c2ccc(F)cc2)nc2c1cnn2C,active: 79.4 µM,–,–
Cc1ccc(OCc2nc(C3CCCCN3C(=O)c3ccncc3)no2)cc1 (stereo unspecified),"inconclusive: 50.1 µM [inhibitor, partial curve, poor fit]",–,–
N#Cc1ccc2nc(CO[C@H]3CN(Cc4ccccc4F)C[C@H]3F)[nH]c2c1,"inconclusive: 100 µM [inhibitor, partial curve]",–,–
CNC(=O)C1CCCN(Cc2cccc(-c3cccs3)c2)C1 (stereo unspecified),active: 100 µM,–,–
Cc1ccc(C2c3cc(OCc4nc(C(=O)NCC(C)C)co4)ccc3CCN2C(=O)C2CC2)cc1 (stereo unspecified),active: 39.8 µM,–,–
Cc1nn2c(c1-c1cccc3cn[nH]c13)N(C(=O)Cc1ccccc1)CCC2,–,inactive: -26.3% [at 172 µM],–
CCc1ccccc1S(=O)(=O)N1CCN(C2(CC)CCN(C(=O)C(C)C)C2)CC1 (stereo unspecified),"inconclusive: 50.1 µM [inhibitor, partial curve, poor fit]",–,–
COc1ccc(NC(=O)C2CCN(c3cc(C(F)(F)F)ncn3)CC2)cc1,–,inactive: -25.4%,–
Cc1ccc(OCc2nc(C3CCCCN3C(=O)c3cc(F)ccc3F)no2)cc1 (stereo unspecified),"inconclusive: 50.1 µM [inhibitor, partial curve, poor fit]",–,–
N#CC1CCN(C(=O)CNC(=O)c2ccc(-c3cnc4ccccc4c3)cc2)CC1,"inconclusive: 56.2 µM [inhibitor, partial curve, poor fit]",–,–
Cc1cccc(-c2nc(C3CC(=O)N(c4ccc(F)c(Cl)c4)C3)no2)c1 (stereo unspecified),"inconclusive: 89.1 µM [inhibitor, single point]",–,–
CC(C)NC(=O)c1nc2cccnc2n(C2CCCC2)c1=O,"inconclusive: 112 µM [inhibitor, single point]",–,–
Cc1cccc(OCCc2noc(C3CN(C(=O)Nc4ccc5c(c4)OCCO5)C3)n2)c1,"inconclusive: 22.4 µM [inhibitor, full curve, poor fit]",–,–
CCCC1CN(Cc2ccccc2)[S+](=O)([O-])c2cccnc2O1 (stereo unspecified),"inconclusive: 35.5 µM [inhibitor, partial curve, poor fit]",–,–
C=CCOc1c(OC)ccc2c1CN(CCOC)C(=O)CCN2CC(O)COc1ccccc1 (stereo unspecified),"inconclusive: 50.1 µM [inhibitor, partial curve, poor fit]",–,–
O=C(NC1CCN(c2cc(-c3ccccc3)[nH]n2)CC1)c1ccc2ccccc2n1,active: 50.1 µM,–,–
CN(C)C[C@@H]1CN(Cc2cccnc2)C[C@H]1NC(=O)c1ccc(F)c(Cl)c1,"inconclusive: 89.1 µM [inhibitor, single point]",–,–
C(=C\c1ccccc1)/CN1CCN(c2nccc(-c3cccnc3)n2)CC1,"inconclusive: 56.2 µM [inhibitor, partial curve, poor fit]",–,–
COCCC(=O)N1CCC(N2C(=O)C(OCC3CC3)C23CCOCC3)CC1 (stereo unspecified),–,–,inactive
CCN1C(=O)CCc2cc(NC(=O)c3cc(F)cc(F)c3)ccc21,"inconclusive: 50.1 µM [inhibitor, partial curve, poor fit]",–,–
CC1CCC(Nc2ncncc2-c2nc(-c3ccccc3)no2)CC1 (stereo unspecified),–,–,inactive
CCOc1ccc2c(n1)CCN(C(=O)NC1CCCC1)C2,–,inactive: 5.98%,–

Compound,Potency,"activity change, negative = cytotoxicity",outcome
COc1cc2c(c(OC)c1OC)C(c1cc3c(cc1Cl)OCO3)CC(=O)N2 (stereo unspecified),"inconclusive: 50.1 µM [inhibitor, partial curve, poor fit]",–,–
COCC(=O)N1CCC(Oc2ccccc2C(=O)NCCc2ncccc2C)CC1,–,inactive: -8.77%,–
CCC(=O)N1Cc2ccccc2CC2(CCN(CC3CCNCC3)CC2)C1,–,inactive: -9.64%,–
Cc1ccccc1-c1cccc(CCOc2cnc3c(ccn3CC(=O)O)c2)c1,"inconclusive: 100 µM [inhibitor, single point]",–,–
O=C(COc1ccc(F)cc1)N1CCCC(c2noc(COc3ccccc3F)n2)C1 (stereo unspecified),"inconclusive: 89.1 µM [inhibitor, single point]",–,–
CN(C)c1nccnc1OC1CCN(C(=O)c2ccccc2)C1 (stereo unspecified),–,inactive: 4.95%,–
Cc1nc2scc(CC(=O)N3CCCCC3)n2c(=O)c1-c1cc(C)n(-c2ccc(F)cc2)n1,–,inactive: -0.682%,–
O=C(c1cccc(Cl)c1)N1CCC(C(=O)N2CCC(N3CCCC3=O)CC2)CC1,–,inactive: -5.01%,–
O=C(c1ccc(F)cc1)N1CCC(C(=O)N2CCCC2c2nc3ccncc3[nH]2)CC1 (stereo unspecified),–,–,inactive
Cc1ccc(-c2nnc3ccc(N4CCN(Cc5ccccc5)CC4)nn23)nc1,"inconclusive: 70.8 µM [inhibitor, partial curve, poor fit]",–,–
O=C(O)CSCC(=O)N[C@H]1C[C@H]2C(=O)Nc3ccc(-c4cccs4)cc3C(=O)N2C1,–,inactive: -17.1%,–
O=C(NCc1c[nH]c2ncccc12)c1ccc2c(c1)OCO2,–,inactive: -9.82% [at 172 µM],–
CCCC(O)CN1CCC(=O)N(Cc2ccccc2)Cc2sccc21 (stereo unspecified),"inconclusive: 79.4 µM [inhibitor, partial curve, poor fit]",–,–
CN1c2cc(C(=O)Nc3cccc(C(F)(F)F)c3)ccc2C(=O)N2CCCC21 (stereo unspecified),"inconclusive: 63.1 µM [inhibitor, partial curve, poor fit]",–,–
CCOc1cccc(CN2CC(Oc3ccccc3C(=O)N3CCOCC3)C2)c1,"inconclusive: 56.2 µM [inhibitor, partial curve, poor fit]",–,–
COc1ccccc1-c1ccc(C(=O)N2CCC(C(=O)NCCc3ccc(Cl)cc3)CC2)cc1,"inconclusive: 35.5 µM [inhibitor, partial curve, poor fit]",–,–
O=C(Nc1ccccc1)O[C@@H]1CO[C@H]2[C@@H]1OC[C@@H]2NC(=O)C1CC1,"inconclusive: 11.2 µM [inhibitor, full curve, poor fit]",–,–
O=C(CC(F)(F)F)N1CCC(N2C(=O)C(O)C23CCCCC3)CC1 (stereo unspecified),–,inactive: 0.916%,–
CCc1noc(-c2cccn3c(CNC(=O)c4cccc(F)c4)nnc23)n1,–,inactive: -8.2%,–
COCC1CN(C2CCC2)CC12CCN(C(=O)c1ccccc1C)CC2 (stereo unspecified),"inconclusive: 50.1 µM [inhibitor, partial curve, poor fit]",–,–
O=C(c1cccc(F)c1)N1CCCN(c2cc(-c3ccc(F)cc3)[nH]n2)CC1,"inconclusive: 89.1 µM [inhibitor, single point]",–,–
CCn1cc(-c2ccc(Cl)cc2)cc1C(=O)N1CCN(C(C)C)CC1,"inconclusive: 50.1 µM [inhibitor, partial curve, poor fit]",–,–
